Data on 43 compounds can be found in ChEMBL document CHEMBL4888484, “Replenishing the malaria drug discovery pipeline: Screening and hit evaluation of the MMV Hit Generation Library 1 (HGL1) against asexual blood stage Plasmodium falciparum ,using a nano luciferase reporter read-out” (2022).

About 540 (0.36%) of roughly 150,000 compounds showed an effect of 50% or more. The list shows a part of the results.

In the test the test system is Plasmodium falciparum. Kind of test: Primary screen in NF54 nanoGlo assay, in single point, at 2uM, 72h; a lower Z score goes with more inhibition. Type of test: functional, Erythrocyte. As to conditions: timepoint 72 hour.
On to `CN(C)C[C@@H]1CN(c2nccc(C3CCCC3)n2)C[C@@H]1CO`, for which the “% Inhibition” value is -11% and the Z score is given as 1.87.
For `N#Cc1cccc(S(=O)(=O)N2CCCCCCC2)c1`, in that order: 4% and -0.83.
For the compound `CO[C@@H]1CS(=O)(=O)[C@H]2CN(C(=O)NCc3cnc(C(F)(F)F)nc3)C[C@@H]12`, the “% Inhibition” value is listed as 2% and the Z score is -0.37.
For `C[C@H]1Cc2cnccc2N1S(=O)(=O)c1ccc2c(c1)OCC(=O)N2` the same measures were 0% and 0.02.
For `CCc1ccc2nc(C)c(CN(Cc3ccccc3)Cc3ccccc3)c(O)c2c1`, in that order: -8% and 1.44.
For `COC[C@@H]1CCCN1CCN1CCN(c2ccccc2)CC1`, the “% Inhibition” value is -1% and the Z score is given as 0.25.
Consider `C#C[C@H](C)NS(=O)(=O)c1cccc(C)c1Br`, for which the “% Inhibition” value was 0% and the Z score is reported as -0.01.
In the case of `Cc1ccc(-c2nsc(NC(=O)COc3ccccc3)n2)s1`, the “% Inhibition” value was 2% and the Z score is -0.31.
For `COc1ccccc1-n1nc(CN(C(=O)CC(C)C)C2CC2)c2c1CCN(Cc1ccccc1F)C2` the same measures were -8% and 0.75.
For `O=C(c1ccccc1)N(Cc1ccc(-c2cccc(Cl)c2)o1)[C@H]1CCS(=O)(=O)C1` the same measures were -11% and 2.08.
For `CC(=O)Nc1noc2nc(C)cc(C)c12`, in that order: 28% and -3.12.
For the compound `NS(=O)(=O)c1ccc(F)cc1Br`, the “% Inhibition” value is -5% and the Z score was found to be 0.62.
Turning to `CCCN1CCC[C@H]1CNC(=O)c1nc(C)[nH]c1C`, the “% Inhibition” value is -9% and the Z score is 1.49.
For `Cc1c(Cc2c(Cl)cccc2Cl)c(=O)ccn1-c1ccc(OCc2ccccc2)cc1`, in that order: -15% and 2.16.
For `Cc1cc(=O)[nH]c(CCNc2cc(OC(C)C)nc(N)n2)n1` the same measures were 2% and -0.42.
For `CO[C@H]1CCC[C@@H]1NC(=O)c1cc2ccccc2[nH]1` the same measures were 6% and -0.78.
Take `Cc1cc2nc(C(=O)NCCc3c[nH]cn3)cc(C)n2n1`: the “% Inhibition” value turned out to be 7% and the Z score is -0.94.
Take `C[C@H](NC(=O)c1ccccc1)C(=O)NCC1(N2CCOCC2)CCCCC1`: the “% Inhibition” value is reported as -4% and the Z score stood at 0.39.
For `NC(=O)c1ccc[n+](Cc2ccc(-c3ccccc3)cc2)c1`, in that order: -5% and 1.
For `Cc1nn(C)cc1Cn1ccnc1-c1ccnc2ccccc12`, the “% Inhibition” value is -2% and the Z score is reported as 0.23.
For `O=C(Cc1ccc(-n2cnnc2)cc1)N1CCC2(CC1)OCCc1ccsc12` the same measures were -4% and 0.87.
For `O=C(NC(c1ccccc1)c1ccccc1)c1cc2n(n1)CCN(Cc1c(F)cccc1Cl)C2=O` the same measures were -10% and 1.08.
For `O=C(C[C@H]1CNCCO1)Nc1ccccc1C(=O)NCc1ccccn1` the same measures were -17% and 2.46.
Turning to `CN(C)CCO[C@H]1C[C@@H](O)C12CCN(Cc1nc3c(s1)CCCC3)CC2`, the “% Inhibition” value is recorded as -10% and the Z score came to 0.96.
On to `CCc1cnccc1C(=O)O[C@@H](C)Cc1cccnc1`, for which the “% Inhibition” value is on record as -13% and the Z score was found to be 1.45.
For `NC(=O)N1CCC[C@H](Nc2ccnc(Cc3ccccc3)n2)C1`, in that order: -10% and 1.64.
Turning to `CC[C@H](NS(=O)(=O)c1cn[nH]c1)C1CC(O)C1` (stereo partly specified), the “% Inhibition” value worked out at 0% and the Z score turned out to be 0.05.
As for `O=C(NCc1ccsc1)C1(C(=O)NCc2ccsc2)CCC1`, the “% Inhibition” value is on record as 0% and the Z score came out at 0.02.
Regarding `Cc1cc(C(=O)Nc2c(C)cnn2C2CCCC2)no1`, the “% Inhibition” value is given as -6% and the Z score is 0.6.
For `COc1cnc(NC(=O)N2CC[C@@]3(CCCN(C)C3)C2)s1`, in that order: -7% and 1.47.
For `CC1(C)C(=O)NCCN1C(=O)CCC1CCNCC1`, in that order: -5% and 0.67.
For `Cc1ccc2c(c1)N(S(C)(=O)=O)C[C@@H](C(=O)Nc1cccc(N(C)S(C)(=O)=O)c1)O2`, in that order: -18% and 2.33.
As to `C#C[C@H](CNC(=O)OCC)N1CCOCC1`, the “% Inhibition” value is reported as -11% and the Z score came out at 1.8.
For `CC(=O)N(Cc1nnsc1Cl)S(=O)(=O)c1ccc(Br)cc1` the same measures were -2% and 0.29.
For `CCN1CCC[C@](C)(c2nc(CCN3CCCC3=O)no2)C1` the same measures were -11% and 1.46.
For `C[C@]1(Cc2ccc3c(c2)OCO3)CCCN(C(=O)c2cnc(C3CC3)nc2)C1`, in that order: -3% and 0.64.
For `CCOC(=O)CCC(=O)NC1CCCC(OC(=O)Nc2ccc(F)cc2)C1` (stereo unspecified), the “% Inhibition” value was -13% and the Z score amounted to 2.57.
For `CC1CCC(N(CC2CCCO2)C(=O)NC2CC3CCC2O3)CC1` (stereo unspecified) the same measures were 29% and -3.78.
For `Cc1ccncc1-c1ccc(C(=O)N2CCCCCCC2)cc1`, in that order: -21% and 4.22.
For `CC(C)n1nccc1N1C(=O)[C@H](C)N(Cc2ccccc2)C1=O` the same measures were -10% and 1.03.
For the compound `CN(C)S(=O)(=O)c1cc(NC2CCCC2)cc(C(=O)NCCCn2ccnc2)c1`, the “% Inhibition” value is on record as 22% and the Z score is -2.56.
For `O=C(N1CCOCC1)N1Cc2ccccc2C1`, in that order: -13% and 1.65.
As to `Cc1oc(-c2cccc(F)c2F)nc1CN1C[C@@H](C)NC[C@@H]1C`, the “% Inhibition” value was -9% and the Z score was 1.47.
